# In paper PMC4336329 (PLoS ONE, 2015):
# The campaign covered roughly 310,000 compounds. About 2,200 (0.71%) showed an effect of 50% or more. The effect is printed as a negative number. This is one part of the list.
# Target: human ether-à-go-go-related gene (hERG) potassium channel (human, UniProt Q12809)
# Assay: primary screen, population patch clamp on CHO cells stably expressing hERG
# Chain of human ether-à-go-go-related gene (hERG) potassium channel (Q12809 whole entry, looked up): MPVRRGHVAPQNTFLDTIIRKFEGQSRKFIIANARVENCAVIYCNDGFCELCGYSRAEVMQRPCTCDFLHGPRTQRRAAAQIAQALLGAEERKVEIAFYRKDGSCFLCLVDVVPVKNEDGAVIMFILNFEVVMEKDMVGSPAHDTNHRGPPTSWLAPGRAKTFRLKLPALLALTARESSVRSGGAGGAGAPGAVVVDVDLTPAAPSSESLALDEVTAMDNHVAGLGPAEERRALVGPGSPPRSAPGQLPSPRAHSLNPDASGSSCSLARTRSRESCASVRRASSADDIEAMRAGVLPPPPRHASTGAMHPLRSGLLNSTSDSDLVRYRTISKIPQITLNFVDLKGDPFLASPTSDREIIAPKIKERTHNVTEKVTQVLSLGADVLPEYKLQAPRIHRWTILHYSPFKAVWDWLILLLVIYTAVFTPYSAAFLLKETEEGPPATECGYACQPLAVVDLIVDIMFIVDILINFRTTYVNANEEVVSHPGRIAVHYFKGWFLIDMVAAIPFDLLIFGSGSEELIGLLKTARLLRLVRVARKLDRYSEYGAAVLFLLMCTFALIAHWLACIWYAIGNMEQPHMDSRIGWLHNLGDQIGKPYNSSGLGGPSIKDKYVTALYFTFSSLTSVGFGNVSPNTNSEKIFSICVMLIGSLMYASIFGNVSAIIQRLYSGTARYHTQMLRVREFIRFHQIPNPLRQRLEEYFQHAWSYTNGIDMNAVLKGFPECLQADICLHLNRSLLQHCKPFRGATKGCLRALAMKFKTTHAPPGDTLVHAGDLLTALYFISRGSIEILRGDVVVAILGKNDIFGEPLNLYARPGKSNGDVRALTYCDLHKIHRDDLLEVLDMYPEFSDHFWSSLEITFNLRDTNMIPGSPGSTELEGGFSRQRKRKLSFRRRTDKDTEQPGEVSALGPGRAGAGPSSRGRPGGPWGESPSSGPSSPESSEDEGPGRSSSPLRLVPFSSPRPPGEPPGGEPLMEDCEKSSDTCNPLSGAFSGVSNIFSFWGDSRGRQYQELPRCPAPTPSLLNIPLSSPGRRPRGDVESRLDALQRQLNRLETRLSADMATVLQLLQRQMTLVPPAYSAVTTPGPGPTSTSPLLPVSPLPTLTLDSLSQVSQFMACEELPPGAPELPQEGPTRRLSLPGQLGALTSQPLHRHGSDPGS
row,SMILES,"hERG current change (%, negative = inhibition) at 1uM [%]"
1,CCN(c1ccc(NC(=O)COC(=O)c2ccc(C)s2)cc1)C(C)C,13.2
2,CCC(C)C(NC(=O)C1CCC(C)CC1)C(=O)NCc1ccccn1 (stereo not drawn),2.86
3,COc1ccccc1/C=C/C(=O)c1ccc(NC(C)=O)cc1,10.7
4,CCOC(=O)Cn1c(COc2ccccc2OC)[n+](C)c2ccccc21,10.7
5,COc1ccccc1NC(=O)CSc1nnc(-c2ccncc2)o1,12.2
6,Cc1ccc(C(=O)Nc2cc([N+](=O)[O-])ccc2C)cc1,0.416
7,Cc1ccc(NS(=O)(=O)c2cc(C(=O)O)ccc2Cl)c(C)c1,6.76
8,Cl.Nc1cc(Cl)ccc1N1CCCC1,8.35
9,O=C(Nc1cccc([N+](=O)[O-])c1)c1ccc2nc(N3C(=O)CCC3=O)sc2c1,-1.85
10,Cc1cc(N/C=C/C(=O)c2cccc3ccccc23)no1,11.3
11,COc1cc(C(=O)OCC(=O)N2c3ccccc3NC(=O)C2(C)C)ccc1OCC(C)C,9.03
12,O=C(c1ccc2nc(-c3ccco3)c(-c3ccco3)nc2c1)N1CCC2(CC1)OCCO2,-4.65
13,CCC(C(=O)NC1CC1)n1nc(C)c2c(C)n(-c3ccc(C)cc3)nc2c1=O (stereo not drawn),9.43
14,COc1cccc(CNC(=O)CCCn2nc(C)c3c(C)n(-c4ccccc4)nc3c2=O)c1,6.05
15,NS(=O)(=O)c1ccc(CCNC(=O)CN2CCN(Cc3cccc(C(F)(F)F)c3)CC2)cc1,16.6
16,Cc1cc(C)c(NC(=O)COC(=O)Cc2ccsc2)c(C)c1,15
17,c1ccc(-c2csc(N3CCCCCC3)n2)cc1,4.29
18,CCCn1c(NCc2ccccn2)nc2ccccc21,2.45
19,O=C(/C=C/c1ccccn1)c1cc(Br)ccc1O,-6.34

row,SMILES,"hERG current change (%, negative = inhibition) at 1uM [%]"
1,CSCCCNC(=O)c1ccccc1OC1CCN(S(C)(=O)=O)CC1,11.6
2,COc1ccc(CN=C(C#N)C2=C(O)c3ccccc3C2=O)cc1,9.81
3,COC(=O)c1cn(NC(=O)c2cccc(OC)c2)c(=O)c2ccccc12,19.7
4,O=C(Cc1ccc(Cl)cc1)NCCS(=O)c1ccc(Cl)cc1 (stereo not drawn),-2.89
5,Cc1c(Cl)ccc(S(=O)(=O)NCCCn2ccnc2)c1Cl,12.2
6,COC1CCN(C(=O)CC2C(=O)NCCN2CC(C)(C)C)CC1 (stereo not drawn),15.2
7,COc1ccc(NC(=O)CC(C)(C)C)c([N+](=O)[O-])c1,2.52
8,CC(C)NC(=O)C(=O)NCCc1ccc(Cl)cc1,12.5
9,Cn1nc(-c2ccc(C(=O)N3CCN(Cc4ccccc4)CC3)cc2)c2ccccc2c1=O,-6.27
10,O=C(c1ccc(Cn2c(=S)[nH]c3ccc(N4CCOCC4)cc3c2=O)cc1)N1CCN(c2ccc(F)cc2)CC1,21.7
11,CC1(C)CC(=O)C(C=Nc2ccccc2C(=O)O)=C(O)C1,-0.0852
12,O=C(c1cccc([N+](=O)[O-])c1)N1CCN(S(=O)(=O)/C=C/c2ccccc2)CC1,-39.7
13,CCn1c(SCC(=O)NCc2ccccc2)nnc1-c1cccnc1,16.7
14,COc1ccc(NC(=O)CN2CCN(c3ccccc3F)CC2)cc1,6.34
15,COc1ccccc1-c1nnc(SCC(=O)N2CCOCC2)n1-c1ccccc1,4.39
16,CCc1ccc(-c2cc(C(=O)NN3CCOCC3)c3ccccc3n2)cc1,6.69
17,CN(C)C(=O)COC(=O)c1cccc(S(=O)(=O)N2CC3(C)CC2CC(C)(C)C3)c1 (stereo not drawn),7.59
18,CC(C)N(Cc1nccn1C)C(=O)CC1C(=O)NCCN1Cc1ccccc1C(F)(F)F (stereo not drawn),7.62
19,CCn1c(SCc2ccc(F)cc2)nnc1-c1nn(-c2ccccc2)ccc1=O,-8.07

row,SMILES,"hERG current change (%, negative = inhibition) at 1uM [%]"
1,CS(=O)(=O)N(CC(=O)N/N=C/c1ccccc1C(=O)O)c1cccc(Cl)c1Cl,3.23
2,O=C(Nc1cccc([N+](=O)[O-])c1)N1CCc2ccccc2C1,2.06
3,Cc1ccc(NC(=O)CN(C)S(=O)(=O)c2cnc[nH]2)cc1C,10.2
4,O=S(=O)(c1ccccc1)N1CN(Cc2ccc(F)cc2)c2nc3ccccc3nc21,-3.43
5,CCC(CO)NCc1ccccc1OC(C)C.Cl (stereo not drawn),11.2
6,CC(=O)N1Cc2cc([N+](=O)[O-])ccc2Oc2ccccc21,0.114
7,CC(C)(CO)NCC(O)Cn1cc(C=O)c2ccccc21 (stereo not drawn),16.8
8,Fc1ccc(F)c(CNc2ncnc3cc(Cl)ccc23)c1,13.8
9,Cc1cccc(NC(=S)NCc2ccco2)n1,6.81
10,C[C@@H](CN1C(=O)C(=O)NC[C@@H]1C)NC(=O)CC12CC3CC(CC(C3)C1)C2,13.9
11,Cc1onc(-c2ccccc2)c1-c1n[nH]c(=S)n1-c1ccc(C(=O)O)cc1,16.5
12,O=C(Nc1cccnc1)c1ccc(COc2ccccc2Br)o1,9.66
13,S=C(Nc1ccc(Cl)cc1)N1CCN(C2CCCCC2)CC1,-1.99
14,O=C(Nc1ccccc1)/C(=C\c1ccc2c(c1)OCO2)NC(=O)c1ccco1,9.59
15,Cc1ccc(S(=O)(=O)CCC(=O)OCC(=O)NCC(=O)Nc2c(C)cc(C)cc2C)cc1,5.77
16,Cc1ccc(S(=O)(=O)O/N=C2\CCCc3ccccc32)cc1,10.3
17,O=C(NC(=S)N1CCN(c2ccc([N+](=O)[O-])cc2)CC1)c1ccc(F)cc1,-16.6
18,Cc1ccsc1C(=O)NNC(=O)C1CC=CCC1C(=O)O (stereo not drawn),-0.401
19,COc1cc2[nH]c(=S)n(NC(=O)CC(C)C)c(=O)c2cc1OC,7.27
